Measurements reported in the supplement of paper PMC4967469.

Key:
Assay in all cases: Viability of human cancer cell lines after 72 h of drug (GDSC screen)
AT-7519 = compound: O=C(NC1CCNCC1)c1n[nH]cc1NC(=O)c1c(Cl)cccc1Cl [AT-7519]; details: top dose 10.24 µM; top dose inferred
Description: (§1)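 Human cancer cell lines in 384-well plates, medium with 10% serum, drug for 72 h over a 256-fold dose range (nine 2-fold or five 4-fold steps up to the top dose). Adherent lines were fixed and stained with the nucleic acid dye Syto60, suspension lines read with resazurin; signal relative to control wells, capped at 0 and 100%. One two-parameter sigmoid per drug and line, fitted in a mixed model over all curves with the slope shared within a line.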

FH535 = compound: Cc1cc([N+](=O)[O-])ccc1NS(=O)(=O)c1cc(Cl)ccc1Cl [FH535]; details: top dose 32 µM; top dose inferred
Description: as §1

XMD14-99 = compound: COc1cc(N2CCN(C)CC2)ccc1Nc1nc(N)c(C(=O)c2c(Cl)cccc2Cl)s1 [XMD14-99]; details: top dose 10.24 µM; top dose inferred
Description: as §1

Dasatinib = compound: Cc1nc(Nc2ncc(C(=O)Nc3c(C)cccc3Cl)s2)cc(N2CCN(CCO)CC2)n1 [Dasatinib]; details: top dose 1.28 µM
Description: as §1

A-443654 = compound: Cc1n[nH]c2ccc(-c3cncc(OC[C@@H](N)Cc4c[nH]c5ccccc45)c3)cc12 [A-443654]; details: top dose 1.024 µM; top dose inferred
Description: as §1

Row | Cell Line | AUC (AT-7519) | IC50 (AT-7519) [nM] | AUC (FH535) | IC50 (FH535) [nM] | AUC (XMD14-99) | IC50 (XMD14-99) [nM] | AUC (Dasatinib) | IC50 (Dasatinib) [nM] | AUC (A-443654) | IC50 (A-443654) [nM]
1 | EB-3 (Burkitt lymphoma, suspension) | 0.338 | 210 | 0.565 | 3100 | 0.902 | > 10200 | 0.789 | 670 | 0.745 | 368
2 | A704 (kidney, adherent) | 0.989 | > 10200 | 0.462 | 1580 | 0.989 | > 10200 | 0.352 | 31.7 | 0.661 | 177
3 | NCI-H847 (small cell lung carcinoma, adherent) | 0.859 | 6030 | 0.594 | 3430 | 0.911 | 9740 | 0.986 | > 1280 | 0.712 | 221
4 | HSC-39 (stomach, suspension) | 0.616 | 1270 | 0.755 | 9510 | 0.971 | > 10200 | 0.991 | > 1280 | 0.865 | 704
5 | PL-21 (acute myeloid leukaemia, suspension) | 0.224 | 85.9 | 0.73 | 10200 | 0.945 | > 10200 | 0.982 | > 1280 | 0.716 | 293
6 | GDM-1 (acute myeloid leukaemia, suspension) | 0.412 | 370 | 0.683 | 6340 | 0.92 | > 10200 | 0.049 | < 5 | 0.612 | 128
7 | CPC-N (small cell lung carcinoma, suspension) | 0.518 | 721 | 0.893 | > 32000 | 0.982 | > 10200 | 0.972 | > 1280 | 0.889 | > 1020
8 | SK-MEL-1 (melanoma, suspension) | 0.958 | > 10200 | 0.941 | > 32000 | 0.979 | > 10200 | 0.993 | > 1280 | 0.98 | > 1020
9 | RS4-11 (leukaemia, suspension) | 0.262 | 144 | 0.802 | 14200 | 0.937 | > 10200 | 0.955 | > 1280 | 0.683 | 198
10 | JAR (urogenital system, adherent) | 0.234 | 111 | 0.868 | 28300 | 0.986 | > 10200 | 0.961 | > 1280 | 0.637 | 151
11 | SF539 (glioma, adherent) | 0.546 | 842 | 0.772 | 11200 | 0.99 | > 10200 | 0.912 | > 1280 | 0.948 | > 1020
12 | TGBC24TKB (biliary tract, adherent) | 0.95 | > 10200 | 0.643 | 4840 | 0.98 | > 10200 | 0.373 | 36.6 | 0.728 | 270
13 | LXF-289 (lung adenocarcinoma, adherent) | 0.559 | 924 | 0.604 | 3830 | 0.974 | > 10200 | 0.385 | 38.8 | 0.638 | 153
14 | NH-12 (neuroblastoma, adherent) | 0.881 | > 10200 | 0.793 | 16600 | 0.963 | > 10200 | 0.984 | > 1280 | 0.984 | > 1020
15 | DMS-79 (small cell lung carcinoma, suspension) | 0.852 | 10000 | 0.979 | > 32000 | 0.985 | > 10200 | 0.956 | > 1280 | 0.804 | 613
16 | NOS-1 (osteosarcoma, adherent) | 0.346 | 216 | 0.511 | 2150 | 0.881 | > 10200 | 0.246 | 12.3 | 0.577 | 109
17 | SU-DHL-6 (B-cell lymphoma, suspension) | 0.141 | 78.4 | 0.787 | 10300 | 0.944 | > 10200 | 0.098 | 7.11 | 0.41 | 38.7
18 | SW872 (soft tissue, adherent) | 0.958 | > 10200 | 0.699 | 6810 | 0.989 | > 10200 | 0.412 | 47 | 0.732 | 272
19 | NCI-H1838 (lung adenocarcinoma, adherent) | 0.932 | > 10200 | 0.942 | > 32000 | 0.979 | > 10200 | 0.808 | 842 | 0.964 | > 1020
20 | Mo-T (hairy cell leukaemia, suspension) | 0.609 | 1290 | 0.888 | > 32000 | 0.926 | > 10200 | 0.987 | > 1280 | 0.976 | > 1020

Row | Cell Line | AUC (AT-7519) | IC50 (AT-7519) [nM] | AUC (FH535) | IC50 (FH535) [nM] | AUC (XMD14-99) | IC50 (XMD14-99) [nM] | AUC (Dasatinib) | IC50 (Dasatinib) [nM] | AUC (A-443654) | IC50 (A-443654) [nM]
21 | L-428 (Hodgkin lymphoma, suspension) | 0.872 | 7750 | 0.779 | 11400 | 0.979 | > 10200 | 0.993 | > 1280 | 0.904 | > 1020
22 | NCI-H345 (small cell lung carcinoma, suspension) | 0.962 | > 10200 | 0.634 | 4770 | 0.99 | > 10200 | 0.974 | > 1280 | 0.805 | 547
23 | CTB-1 (B-cell lymphoma, suspension) | 0.706 | 3040 | 0.787 | 19700 | 0.943 | > 10200 | 0.902 | > 1280 | 0.781 | 596
24 | COLO-668 (small cell lung carcinoma, adherent) | 0.77 | 3880 | 0.632 | 4630 | 0.971 | > 10200 | 0.986 | > 1280 | 0.791 | 460
25 | RXF393 (kidney, adherent) | 0.567 | 1050 | 0.833 | > 32000 | 0.89 | > 10200 | 0.352 | 26.6 | 0.688 | 265
26 | NCI-H1869 (lung squamous cell carcinoma, adherent) | 0.652 | 1800 | 0.691 | 7430 | 0.985 | > 10200 | 0.749 | 464 | 0.873 | > 1020
27 | BE-13 (lymphoblastic leukaemia, suspension) | 0.322 | 212 | 0.71 | 7470 | 0.94 | > 10200 | 0.916 | > 1280 | 0.8 | 457
28 | H9 (lymphoid neoplasm, suspension) | 0.745 | 2750 | 0.784 | 11100 | 0.986 | > 10200 | 0.992 | > 1280 | 0.855 | 597
29 | ES5 (Ewing sarcoma, adherent) | 0.362 | 251 | 0.74 | 10900 | 0.894 | > 10200 | 0.981 | > 1280 | 0.955 | > 1020
30 | KG-1 (acute myeloid leukaemia, suspension) | 0.855 | 6840 | 0.707 | 7130 | 0.896 | 10200 | 0.961 | > 1280 | 0.963 | > 1020
31 | P31-FUJ (acute myeloid leukaemia, suspension) | 0.901 | 7620 | 0.954 | > 32000 | 0.996 | > 10200 | 0.996 | > 1280 | 0.987 | > 1020
32 | LB831-BLC (bladder, adherent) | 0.537 | 809 | 0.482 | 1780 | 0.987 | > 10200 | 0.423 | 49 | 0.684 | 212
33 | ATN-1 (T-cell lymphoblastic leukaemia, suspension) | 0.225 | 108 | 0.786 | 12900 | 0.946 | > 10200 | 0.977 | > 1280 | 0.801 | 461
34 | COR-L279 (small cell lung carcinoma, suspension) | 0.447 | 465 | 0.937 | > 32000 | 0.972 | > 10200 | 0.969 | > 1280 | 0.821 | 510
35 | GOTO (neuroblastoma, adherent) | 0.808 | 6210 | 0.921 | > 32000 | 0.969 | > 10200 | 0.959 | > 1280 | 0.759 | 405
36 | HC-1 (hairy cell leukaemia, suspension) | 0.296 | 175 | 0.726 | 8510 | 0.872 | 9070 | 0.891 | > 1280 | 0.673 | 190
37 | ES4 (Ewing sarcoma, adherent) | 0.689 | 2350 | 0.693 | – | 0.926 | > 10200 | 0.795 | 696 | 0.468 | 51.5
38 | SUP-M2 (anaplastic large cell lymphoma, suspension) | 0.095 | 51.9 | 0.75 | 8400 | 0.503 | 650 | 0.987 | > 1280 | 0.704 | 204
39 | DSH1 (bladder, adherent) | 0.622 | 1370 | 0.398 | 1060 | 0.984 | > 10200 | 0.644 | 196 | 0.733 | 284

Lines with a small IC50 respond at low doses; fits outside the tested doses are given as limits. AUC is the area under the same curve over the 256-fold range up to the top dose, as a fraction; values near 1 show little effect. For some assays here: The top dose, if marked as inferred, was calculated from the reported fits.
